# Assay results from the supplement of paper PMC9135407.
# Where “and” joins values, the source holds several entries; their conditions need not be identical. Equal entries are not always repeated. Structures can show the parent of a compound that is named as a salt. The whole screen tested about 5,800 compounds, of which about 620 (11%) showed activity.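 How the source made its calls: active = score above a cut-off or among the top three wells of a plate; in these data no inactive exceeds 0.85.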 The entries are a selection whose mix differs from that of the whole data set.
# Test system: primary human hepatic stellate cells (donor 1)
# Experiment: scaled lipid accumulation score (0 = DMSO-like, 1 = nortriptyline-like); higher = stronger HSC inactivation (lipid re-accumulation), active = hit call of the paper
# Details: 48 h
# [1] = library stock concentration: 10 mM
# [2] = library stock concentration: 400 uM
# [3] = library stock concentration: 3.33 mM
# [4] = library stock concentration: 80 uM
# [5] = library stock concentration: 2 mM
# [6] = library stock concentration: 1 mM
structure (smiles),measurement,setting,value
CN(C)C(=O)n1nnnc1Cc1ccc(-c2ccccc2)cc1,scaled lipid accumulation score,[1],inactive: 0.554
CCOc1cc(C(=O)Nc2ccc(Cl)c(-c3nc4ccccc4[nH]3)c2)cc(OCC)c1OCC,scaled lipid accumulation score,[1],inactive: 0.438
"O=C(/C=C/c1ccccc1)c1ccc(O[C@@H]2O[C@H](CO)[C@@H](O)[C@H](O)[C@H]2O)cc1O [2',4'-dihydroxychalcone 4'-glucoside]",scaled lipid accumulation score,[1],inactive: 0.22
COc1ccc(-c2ccc3ncc4c(c3c2)n(-c2ccc(N3CCNCC3)c(C(F)(F)F)c2)c(=O)n4C)cn1.O=C(O)/C=C\C(=O)O,scaled lipid accumulation score,[2],active: 0.909
C=C[C@H]1CN2CC[C@H]1C[C@H]2[C@H](O)c1ccnc2ccc(OC)cc12 [Quinine HCl Dihydrate],scaled lipid accumulation score,[3],inactive: 0.077
same,scaled lipid accumulation score,[1],inactive: 0.31
C=C[C@H]1CN2CC[C@H]1C[C@H]2[C@H](O)c1ccnc2ccc(OC)cc12 [Quinine],scaled lipid accumulation score,library stock concentration: 6.2 mM,inactive: 0.205
C=C[C@H]1CN2CC[C@H]1C[C@H]2[C@H](O)c1ccnc2ccc(OC)cc12 [Quinine sulfate],scaled lipid accumulation score,library stock concentration: 4.7 mM,inactive: 0.308
same,scaled lipid accumulation score,[1],inactive: ≤ 0 and inactive: 0.364
Cl.N#Cc1ccc2[nH]cc(CCCCN3CCN(c4ccc5oc(C(N)=O)cc5c4)CC3)c2c1 [Vilazodone HCl],scaled lipid accumulation score,[1],active: 1.1
O=C(O)c1cc(=O)[nH]c(=O)[nH]1,scaled lipid accumulation score,[1],inactive: ≤ 0
O=C(O)c1cc(=O)[nH]c(=O)[nH]1 [Orotic acid (6-Carboxyuracil)],scaled lipid accumulation score,[3],inactive: ≤ 0
same,scaled lipid accumulation score,[1],inactive: ≤ 0
O=c1n(CCCN2CCN(c3cccc(Cl)c3)CC2)nc2ccccn12,scaled lipid accumulation score,[1],inactive: ≤ 0
O=c1n(CCCN2CCN(c3cccc(Cl)c3)CC2)nc2ccccn12 [Trazodone hydrochloride],scaled lipid accumulation score,,inactive: 0.051
same,scaled lipid accumulation score,library stock concentration: 4.9 mM,inactive: ≤ 0
same,scaled lipid accumulation score,[1],inactive: 0.251 and inactive: 0.131
Cc1ccccc1C(C(=O)NC1CCCCC1)N(C(=O)Cn1ccnc1C)c1cccc(F)c1 (stereo not given),scaled lipid accumulation score,[3],inactive: ≤ -0.009
same,scaled lipid accumulation score,[1],inactive: ≤ 0
Oc1ccc(-c2nc(-c3ccc(F)cc3)c(-c3ccncc3)[nH]2)cc1,scaled lipid accumulation score,[4],inactive: ≤ -0.001
same,scaled lipid accumulation score,[2],inactive: ≤ -0.001 and inactive: 0.106
same,scaled lipid accumulation score,[5],inactive: 0.003 and inactive: 0.132
same,scaled lipid accumulation score,[3],inactive: ≤ 0
same,scaled lipid accumulation score,library stock concentration: 15.1 mM,inactive: 0.239
O=C(Nc1ccc(S(=O)(=O)Nc2ccccc2Cl)c(Cl)c1)c1ccccn1,scaled lipid accumulation score,[3],inactive: ≤ -0.009
same,scaled lipid accumulation score,[1],inactive: 0.077
CCC(NC(C)C)C(O)c1ccc(O)c2[nH]c(=O)ccc12 (stereo not given) [Procaterol hcl],scaled lipid accumulation score,library stock concentration: 6.9 mM,inactive: ≤ -0.006
CCC(NC(C)C)C(O)c1ccc(O)c2[nH]c(=O)ccc12 (stereo not given) [Procaterol hydrochloride],scaled lipid accumulation score,library stock concentration: 6.1 mM,inactive: ≤ 0
same,scaled lipid accumulation score,[1],inactive: ≤ -0.006
O=C(O)c1ccc2cc(-c3ccc(O)c(C45CC6CC(CC(C6)C4)C5)c3)ccc2c1,scaled lipid accumulation score,[1],inactive: ≤ -0.006
O=C1C(SCCO)=C(SCCO)C(=O)c2ccccc21,scaled lipid accumulation score,library stock concentration: 16.1 mM,active: 1.05
CC(C)C[C@H](NC(=O)N1CCCCCC1)C(=O)N[C@H](Cc1cn(C)c2ccccc12)C(=O)N[C@H](Cc1ccccn1)C(=O)O,scaled lipid accumulation score,[1],inactive: ≤ -0.006
OCCn1cc(-c2cnc3nnn(Cc4ccc5ncccc5c4)c3n2)cn1,scaled lipid accumulation score,[4],inactive: 0.035
same,scaled lipid accumulation score,[2],inactive: ≤ -0.005
same,scaled lipid accumulation score,[5],inactive: ≤ -0.009 and inactive: ≤ -0.005
same,scaled lipid accumulation score,[3],inactive: ≤ 0
same,scaled lipid accumulation score,[1],inactive: ≤ 0 and inactive: ≤ -0.009 and inactive: ≤ -0.005
CC1=C(/C=C/C(C)=C/C=C/C(C)=C/CO)C(C)(C)CCC1 [Retinol],scaled lipid accumulation score,library stock concentration: 7 mM,inactive: ≤ 0
same,scaled lipid accumulation score,[1],inactive: ≤ 0
Nc1nc2[nH]c(=O)[nH]c2c(=O)[nH]1 [8-hydroxy Guanine (hydrochloride)],scaled lipid accumulation score,[6],inactive: ≤ 0
CCOc1cc2ncc(C#N)c(Nc3ccc(F)c(Cl)c3)c2cc1NC(=O)C=CCN(C)C [Pelitinib (EKB-569)],scaled lipid accumulation score,[3],active: 1.01
C/C=C(/C(=C/C)c1ccc(O)cc1)c1ccc(O)cc1 [Dienestrol],scaled lipid accumulation score,,inactive: ≤ 0
same,scaled lipid accumulation score,library stock concentration: 7.5 mM,inactive: 0.181
same,scaled lipid accumulation score,[1],inactive: ≤ 0
Cc1ncc([N+](=O)[O-])n1CC(C)O (stereo not given) [1-(2-Methyl-5-nitro-imidazol-1-yl)-propan-2-ol],scaled lipid accumulation score,[1],inactive: ≤ 0
Cc1ncc([N+](=O)[O-])n1CC(C)O (stereo not given) [Secnidazole],scaled lipid accumulation score,[3],inactive: 0.012
same,scaled lipid accumulation score,[1],inactive: ≤ 0 and inactive: ≤ -0.027
O=C(O)c1ccccc1OP(=O)(O)O [Fosfosal],scaled lipid accumulation score,,inactive: ≤ 0
same,scaled lipid accumulation score,[1],inactive: ≤ 0
CC(C)CN1CCC(CNCc2ccc(C#CC(C)(C)O)s2)CC1,scaled lipid accumulation score,[1],active: 0.671
COc1ccc2cc([C@H](C)C(=O)O)ccc2c1,scaled lipid accumulation score,[1],inactive: ≤ 0
COc1ccc2cc([C@H](C)C(=O)O)ccc2c1 [(-)-Naproxen sodium],scaled lipid accumulation score,[1],inactive: ≤ -0.055
COc1ccc2cc([C@H](C)C(=O)O)ccc2c1 [Naproxen sodium],scaled lipid accumulation score,[1],inactive: ≤ -0.001
COc1ccc2cc([C@H](C)C(=O)O)ccc2c1 [(S)-Naproxen],scaled lipid accumulation score,[6],inactive: ≤ 0
COc1ccc2cc([C@H](C)C(=O)O)ccc2c1 [Naproxen],scaled lipid accumulation score,,inactive: ≤ 0
same,scaled lipid accumulation score,[3],inactive: ≤ 0
same,scaled lipid accumulation score,library stock concentration: 8.7 mM,inactive: ≤ -0.006
same,scaled lipid accumulation score,[1],inactive: ≤ 0
C[C@]12CCC(=O)C=C1[C@@H]1C[C@@H]1[C@H]1[C@@H]3[C@@H]4C[C@@H]4[C@@]4(CCC(=O)O4)[C@@]3(C)CC[C@@H]12,scaled lipid accumulation score,[1],inactive: ≤ 0
C[C@]12CCC(=O)C=C1[C@@H]1C[C@@H]1[C@H]1[C@@H]3[C@@H]4C[C@@H]4[C@@]4(CCC(=O)O4)[C@@]3(C)CC[C@@H]12 [Drospirenone],scaled lipid accumulation score,[3],inactive: ≤ 0
same,scaled lipid accumulation score,[1],inactive: ≤ 0
Nc1cc(N2CCCCC2)nc(N)[n+]1[O-] [Minoxidil],scaled lipid accumulation score,,inactive: 0.015
same,scaled lipid accumulation score,library stock concentration: 9.6 mM,inactive: ≤ -0.006 and inactive: ≤ -0.001
same,scaled lipid accumulation score,[1],inactive: ≤ 0
"Nc1ncnc2c1ncn2[C@@H]1O[C@H](COP(=O)(O)OP(=O)(O)OP(=O)(O)OP(=O)(O)OC[C@@H]2O[C@H](n3cnc4c(N)ncnc43)C(O)[C@@H]2O)[C@H](O)C1O (stereo not given in full) [P1,P4-Di(adenosine-5')tetraphosphate triammonium]",scaled lipid accumulation score,[1],inactive: ≤ -0.07
CC1CCN=C(N)S1 (stereo not given) [AMT hydrochloride],scaled lipid accumulation score,[1],inactive: 0.018
CC1CCN=C(N)S1 (stereo not given),scaled lipid accumulation score,[1],inactive: ≤ 0
OC1CCC(Nc2ncc3nc(Nc4c(F)cc(F)cc4F)n([C@@H]4CCOC4)c3n2)CC1 (stereo not given in full),scaled lipid accumulation score,[4],inactive: ≤ 0
same,scaled lipid accumulation score,[2],inactive: ≤ 0
same,scaled lipid accumulation score,[5],inactive: ≤ 0
same,scaled lipid accumulation score,[1],inactive: ≤ 0
CCCCCCCCCCCCCCCC(=O)O [Palmitic Acid],scaled lipid accumulation score,[6],inactive: 0.033
N#C/C(=C\c1ccc(O)c(O)c1)C(=O)NCCCc1ccccc1,scaled lipid accumulation score,[1],inactive: ≤ 0
C/C(=C\C(=O)OCCCCCCCCC(=O)O)C[C@@H]1OC[C@H](C[C@@H]2O[C@H]2[C@@H](C)[C@H](C)O)[C@@H](O)[C@H]1O [Mupirocin],scaled lipid accumulation score,[3],inactive: ≤ 0
same,scaled lipid accumulation score,[1],inactive: ≤ -0.001 and inactive: ≤ 0
O=C(O)c1cc(N(Cc2ccccc2O)Cc2cc(O)ccc2O)ccc1O [Lavendustin A],scaled lipid accumulation score,library stock concentration: 13.1 mM,inactive: ≤ -0.007
CCc1cccc(CC)c1NC(=O)CN(CC(=O)O)CC(=O)O [Etifenin],scaled lipid accumulation score,,inactive: 0.119
C=CC(=O)Nc1cc2c(Nc3ccc(F)c(Cl)c3)ncnc2cc1OCCCN1CCOCC1,scaled lipid accumulation score,[1],active: 0.983
COc1ccc(C2=N[C@@H](c3ccc(Cl)cc3)[C@@H](c3ccc(Cl)cc3)N2C(=O)N2CCNC(=O)C2)c(OC(C)C)c1,scaled lipid accumulation score,[6],inactive: ≤ 0
COc1ccc(C2=N[C@@H](c3ccc(Cl)cc3)[C@@H](c3ccc(Cl)cc3)N2C(=O)N2CCNC(=O)C2)c(OC(C)C)c1 [Nutlin-3],scaled lipid accumulation score,[3],inactive: 0.168
same,scaled lipid accumulation score,[1],inactive: 0.829
"c1ccc(C2CN3CCSC3=N2)cc1 (single isomer, unassigned; (-))",scaled lipid accumulation score,[1],inactive: ≤ 0
"c1ccc(C2CN3CCSC3=N2)cc1 (single isomer, unassigned; (-)) [(-)-Tetramisole hydrochloride]",scaled lipid accumulation score,[1],inactive: ≤ -0.055
"c1ccc(C2CN3CCSC3=N2)cc1 (single isomer, unassigned; (-)) [Tetramisole hydrochloride]",scaled lipid accumulation score,,inactive: ≤ 0
same,scaled lipid accumulation score,[1],inactive: ≤ 0
CN/C(=N\CCSCc1nc[nH]c1C)NC#N [Cimetidine],scaled lipid accumulation score,,inactive: ≤ 0
same,scaled lipid accumulation score,[3],inactive: ≤ 0
same,scaled lipid accumulation score,library stock concentration: 7.9 mM,inactive: ≤ -0.006 and inactive: ≤ 0
same,scaled lipid accumulation score,[1],inactive: ≤ 0 and inactive: 0.018 and inactive: 0.008
NC(=O)c1ccc(I)c([N+](=O)[O-])c1 [Iniparib (BSI-201)],scaled lipid accumulation score,[3],inactive: 0.016
same,scaled lipid accumulation score,[1],inactive: ≤ 0
NC(=O)c1ccc(I)c([N+](=O)[O-])c1 [Iniparib],scaled lipid accumulation score,[4],inactive: ≤ 0
same,scaled lipid accumulation score,[2],inactive: ≤ 0
same,scaled lipid accumulation score,[5],inactive: ≤ 0
same,scaled lipid accumulation score,[1],inactive: ≤ 0
COC(=O)C[C@](O)(CCCC(C)(C)O)C(=O)O[C@@H]1C(OC)=C[C@]23CCCN2CCc2cc4c(cc2[C@H]13)OCO4 [Homoharringtonine],scaled lipid accumulation score,[1],active: 1.27
O=C(O)c1cc2cc(Cc3cccnc3)ccc2o1 [Furegrelate (sodium salt)],scaled lipid accumulation score,[6],inactive: ≤ 0
O=C(O)c1cc2cc(Cc3cccnc3)ccc2o1 [Furegrelate sodium],scaled lipid accumulation score,[1],inactive: ≤ -0.038 and inactive: ≤ 0
C=C1c2cccc(O)c2C(O)=C2C(=O)[C@]3(O)C(O)=C(C(N)=O)C(=O)[C@@H](N(C)C)[C@@H]3[C@@H](O)[C@H]12 [Methacycline HCl],scaled lipid accumulation score,[3],inactive: ≤ 0
same,scaled lipid accumulation score,[1],inactive: ≤ 0
